Test results as given in the supplement of paper PMC11417369.
± gives the standard deviation of the averaged measurements. The list shows a part of the results.

System: PfAP2-LT AP2 domain (GST-tagged)
Test: gcPBM binding intensity (ln(normalized median fluorescence intensity)); higher = stronger DNA binding
Method in brief: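 Using an Agilent 4 × 180k array, primer-extended double-stranded 36-bp intergenic genomic probes and negative controls were exposed for 1 h to GST-fused P. falciparum DNA-binding domains expressed in E. coli. Binding was carried out in 1× PBS with 1% milk, 0.2 mg/ml BSA, 0.5% salmon testes DNA and 0.03% Triton X-100, and protein was detected with Alexa488 anti-GST antibody and a 488 nm scan. Binding intensity is the highest Masliner-normalised natural-log median intensity across replicate spots of either probe orientation.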

Row | Sequence | gcPBM binding intensity (ln)
1 | AAATCGTAATATATTTGTACTTATTTGAAAAATCCA [XGTACX_site8141] | 8.49 ± 0.37
2 | AAAAAATATATATCACGTGGTAATATATATATATAT [XGTACX_negctrl_site252] | 9.16 ± 0.14
3 | TACATCTGTATATAAACACACAACAAAAATGCTTAC [CACACA_site3814] | 8.96 ± 0.39
4 | AATATATAAATAGATACACACATACATACATACATA [CACACA_site4301] | 9.4 ± 0.27
5 | AAATTAAATCCGCACGCACACACACCGATTAATAAA [CACACA_site9321] | 9.53 ± 0.19
6 | ACACCTATAAATTAAGTGCATTTTTTTTGATGTTAT | 8.79 ± 0.48
7 | TGTAATACAGAAAAAAGTACTAAAAAGAAAAGGATT [XGTACX_site3176] | 8.89 ± 0.48
8 | TATTATATTTATTTATGTACACATATACTTAAATAA [XGTACX_site1355] | 8.61 ± 0.49
9 | TTTTTTTTTTTAATATGTACGTAAAATAAGTTTAAA [XGTACX_site6495] | 8.05 ± 0.38
10 | ACATTCAATCTACTGTGTACATATTAAACTTTGAAA [XGTACX_site2913] | 8.78 ± 0.43
11 | TCCTTATAAAAATACACACAAACTTTAATTAAAACA [CACACA_site3730] | 8.73 ± 0.36
12 | ATATATATACAACAAGCATGCAGTAATTTTTTTTTT [TGCATGCA_site728] | 8.91 ± 0.36
13 | CTATAATAACATAACACACACATGTATTTATAGGTG [CACACA_site6298] | 9.21 ± 0.28
14 | AGAAGTGTAAAAGTTACACACACAAACTTGTCATTT [CACACA_site4613] | 9.38 ± 0.33
15 | CCCAGGTGCTCGTAACGTACTTACATCAAATATTAT [XGTACX_site4617] | 8.84 ± 0.3
16 | TATAAATAGATATATACACACTTGTGCAGAATATTA [CACACA_site7112] | 8.98 ± 0.38
17 | AGGCGTGAAATATACGTACACACATTATTTATATTT [CACACA_site2558] | 9.1 ± 0.39
18 | AAATAAAAAGTAAAGCGTACAAATGATCAAATAATA [XGTACX_site7898] | 9.06 ± 0.46
19 | TAATCAACAAAATCTACACACTAAAATGAAATATAA [CACACA_site3749] | 8.91 ± 0.42
20 | AAATATTTATAAATTGCACACAAATAATAACATTAT [CACACA_site8737] | 9 ± 0.45
21 | ATAATAATATATACATGTACATATATATATATATAT [XGTACX_site3455] | 9.62 ± 0.16
22 | TAACATTACTCTTAACTCTTTTGGATACCAACTTAT [XGTACX_negctrl_site82] | 8.78 ± 0.63

Row | Sequence | gcPBM binding intensity (ln)
23 | ATAGTATCTGGTAGCTGTACGAATGGTAGAGAGTAG [XGTACX_site2548] | 9.05 ± 0.51
24 | ATATATATTCATAATACACACATTCTGTAGCATTAT [CACACA_site2067] | 9.07 ± 0.38
25 | TTAATTAAATATTATACACACAAAAAAATAATTTTA [CACACA_site96] | 8.56 ± 0.47
26 | TATATATATGTATGATGTACATATATGCATATATAT [XGTACX_site3399] | 8.82 ± 0.26
27 | AATAAAAAGATATTCTCCTTGTTCCTTTTTTTTAAA [CACACA_negctrl_site1147] | 8.33 ± 0.45
28 | AATCTATATTGACACACACACAAAAAAAAAAAAAAA [CACACA_site6739] | 9.3 ± 0.46
29 | ATTTTAACCAATTATTGTACTTGGTTATTCTTTTTT [XGTACX_site7453] | 8.94 ± 0.45
30 | ATATATATATTAAAGGTGCACAAATAAATATATACA [GTGCAC_site9532] | 9.12 ± 0.45
31 | ATATTTTTTTTCTTCACACACATGAATTATATATAA [CACACA_site3216] | 9.07 ± 0.38
32 | AATATACACATTGTGAAATAACAAAAAAGGCAAAAA [CACACA_negctrl_site1014] | 9.06 ± 0.53
33 | CCTATTTATATATACACACACATATATAAATAAATA [CACACA_site2991] | 9.19 ± 0.23
34 | ATGGAAAAATGTATATATAAAATAAATATATTATAT [CACACA_negctrl_site1712] | 8.69 ± 0.49
35 | CATATTAAAAATACATGTACATATATATTTAATATA [XGTACX_site8580] | 8.62 ± 0.49
36 | GTTTGTAAATATTTTACACACATATTTATTTATATA [CACACA_site6632] | 8.82 ± 0.42
37 | TATAAATATGTGTTTACACACAATAATGAATTAAAA [CACACA_site6555] | 8.88 ± 0.45
38 | GTTAAAATAATATTATGTACATATATATAAAAATAT [XGTACX_site8512] | 8.72 ± 0.41
39 | AACCTCAAATACACAAGTACGTATAATAAGGAACAA [XGTACX_site4304] | 9.12 ± 0.52
40 | TATCTCATTTGGAATTGTACTAACAGATACTTGTTT [XGTACX_site2672] | 8.77 ± 0.5
41 | ATTCAATAATTGTTTTTTTTCTTTTTGTTTTTGTTT [GTGCAC_negctrl_site563] | 8.64 ± 0.56
42 | TATACGCATATTTTTACACACATATTTTTTCATATA [CACACA_site2546] | 9.11 ± 0.42
43 | TATATATAATATATATGTACATATGTATAATATTTA [XGTACX_site4400] | 8.71 ± 0.45
44 | TTATGAAAAAAATACTGTACACAATATGACGAAAGT [XGTACX_site2283] | 8.98 ± 0.38

Row | Sequence | gcPBM binding intensity (ln)
45 | TTTTAAATAAATCATGCATGCACATATAATTATATT [TGCATGCA_site151] | 9.01 ± 0.35
46 | CATATTAGGACAAAGTGTACATATATATATATATAT [XGTACX_site1172] | 9.72 ± 0.2
47 | AATATTACGTCTGGACGTACAAATCTTTTTCGTGTC [XGTACX_site6644] | 8.85 ± 0.47
48 | AAATTATTGAAATACGCATGTGTTTTTTTTTTTTTT [TGCATGCA_site391] | 8.71 ± 0.38
49 | TTTTACTAGATATATACACACATTATACCTATAGAT [CACACA_site7530] | 9.04 ± 0.43
50 | ATATAAAGGTTTATTAGTACACATTAGAATACTTTT [XGTACX_site4492] | 8.62 ± 0.52
51 | ACATTTTTTTTTTTTTTTTTTTTCTTACATCATGCA [CACACA_negctrl_site1413] | 8.69 ± 0.57
52 | GAAATATTTTGTTGTGCATGCGACATTAAATAAAAA [TGCATGCA_site331] | 8.63 ± 0.45
53 | TTTTTATTTTTAGTAGTGCATTAATCATATGGTCAT [GTGCAC_site9879] | 8.72 ± 0.42
54 | TAAATAAATCCACATACACACACGACGCTAGTATAT [CACACA_site1060] | 9.34 ± 0.33
55 | AATATTTTATTTTTTCTCATTAAAAATTTTTTTTTT [CACACA_negctrl_site364] | 8.36 ± 0.54
56 | GATAGATAATATTTTAGTACATAAACAATTAAATAT [XGTACX_site4125] | 8.73 ± 0.48
57 | AAAATACATATATATATATATAATATTGTTGTTAAA [GTGCAC_negctrl_site519] | 8.79 ± 0.32
58 | CATATTTACATTAAGTGTACTTATGAATATATATAC [XGTACX_site7962] | 8.86 ± 0.46
59 | ATAATATTTTATAATTGTACTTTTTATAAATATAAA [XGTACX_site1940] | 8.29 ± 0.47
60 | ATATTTTTTTTCATTTGTACACATAAAATTATATAG [XGTACX_site8260] | 8.72 ± 0.49
61 | ATTATTCGTTTTAAATGTACTCATATAAACGATAAA [XGTACX_site7866] | 8.33 ± 0.4
62 | CAAAAGAAGGTAAACACACACACACCCATACAAAAA [CACACA_site3765] | 10.1 ± 0.43
63 | TTTTATAATTTCAAAGGATTCTTTAATATTATAAAT [CACACA_negctrl_site1812] | 8.12 ± 0.39
64 | AAAAAAAAAAAAAAAAGTACACACTTTTGCCTACAT [XGTACX_site6583] | 8.98 ± 0.49
65 | AATAATTGCTAAAGGTGTACAATACGTATATAAGAA [XGTACX_site4910] | 9.12 ± 0.46
66 | TACAGAAATTTATATATATATATATATATATATATA [XGTACX_negctrl_site209] | 9.8 ± 0.39

Row | Sequence | gcPBM binding intensity (ln)
67 | AAATCAAAAACGTTTACACACATTCTTATTTAAATA [CACACA_site790] | 8.78 ± 0.38
68 | TGAGACATGAATGCAAGTACAAAAAGGAGAACAAAA [XGTACX_site6183] | 9.04 ± 0.59
69 | TACATATATTTTTTATGTACTTACTTGTGTGTTTAT [XGTACX_site5126] | 9.04 ± 0.49
70 | AAATGTTGAAATGATACACACATATATATATATATA [CACACA_site2517] | 9.95 ± 0.46
71 | TAAATTCTGTTTAAAAGTACAAATAATATTGTGCCT [XGTACX_site7805] | 8.47 ± 0.47
72 | TTTATTAAAACAAAATGTACACACATATAATTTAAT [XGTACX_site1637] | 8.73 ± 0.38
73 | TTAATCTTCATAAAATGTACAGAAGATTGAATATTC [XGTACX_site6213] | 8.47 ± 0.3
74 | TGAAAGTGTATTAAAGTGCATATTATTTTATCTACC [GTGCAC_site9969] | 8.73 ± 0.42
75 | TTAATAACAAAATAAACACACATATATAAATACACA [CACACA_site6849] | 9.19 ± 0.4
76 | TTATATTTTTTTTGTAGTACATTATAGAATACACAC [XGTACX_site969] | 8.91 ± 0.25
77 | AATTCATTATATATACGTACATATTTCTGTATAAAA [XGTACX_site6371] | 8.62 ± 0.39
78 | ATTTATTTCACAAAAACATGCAGTTTGAAATTGCCA [TGCATGCA_site910] | 8.48 ± 0.45
79 | GATTATTTTATAAGTACACACATTTATATATAATAA [CACACA_site2573] | 8.65 ± 0.35
80 | GCATAAATTATCATAACATAAATATAAAAATATAAT [GTGCAC_negctrl_site55] | 8.85 ± 0.38
81 | AAAAAAAAAAGACACACACACACATAAATATAAATA [CACACA_site6215] | 10.2 ± 0.42
82 | TTATATAGGTCATTCATAAATACAGTTTTTAAAAAA [CACACA_negctrl_site1340] | 8.29 ± 0.42
83 | ATAATACAATTTATAACACACACACTATAATACATA [CACACA_site8338] | 9.56 ± 0.2
84 | AAATAATAAATTATAACACACATATATATATATATA [CACACA_site4045] | 9.615 ± 0.021
85 | TTCATGCTTATATGTGCACACACAAAAGAAAAGAAA [CACACA_site1656] | 9.44 ± 0.36
86 | GGAAAGACAGTTCACAGTACCCAGTAACTCTACGGA [XGTACX_site2009] | 9 ± 0.37
87 | TTTCACCATATAAACGTGCACACTACAAAAATATAT [CACACA_site2547] | 8.86 ± 0.38
88 | AAATAATGAAACAAAGTGCATAAAAATATACATATA [GTGCAC_site9467] | 8.92 ± 0.52
